Read-outs that look alike come from different tables or passages of the source.
Biological target: SARS-CoV-2 NSP14 (Severe acute respiratory syndrome coronavirus 2, UniProt P0DTD1)
Assay: biochemical
[1] = LUM % inhibition, read-out: SARS-CoV-2 NSP14 inhibition: IC50
[2] = LUM % inhibition, read-out: SARS-CoV-2 NSP14 inhibition: Maximum response
[3] = fit of concentration-response curve
[4] = TDI-015051 series, retrospective VS set, biochemical MTase assay, read-out: Merged IC50
[5] = Hill slope of the concentration-response fit
[6] = maximum response, LUM % inhibition, read-out: SARS-CoV-2 NSP14 inhibition: Maximum response (%)
[7] = read-out: SARS-CoV-2 NSP14 inhibition: IC50

SMILES	IC50 [1]	Emax [2]	SARS-CoV-2 NSP14 inhibition: Hill slope [3]	SARS-CoV-2 NSP14 inhibition: Hill slope [5]	Emax [6]	IC50 [7]	also measured
COc1ccc(NS(=O)(=O)c2ccc(C)c(NS(=O)(=O)c3ccc(F)c(C)c3)c2)cc1 [RU-0833893]	> 125 µM	8.58%	37	–	–	–	–
Cn1ccn2ncc(C(=O)NCc3ccc(CNC(=O)c4ccc(O)cc4Cl)cc3)c12 [RU-0834114]	10.6 µM	50.9%	1.09	–	–	–	–
Cc1cc(C(=O)NCc2ccc(C(=O)NCCC3CCN(C)C3=O)cc2)ccc1O (centres unmarked) [RU-0834134]	> 125 µM	32.8%	0.491	–	–	–	–
Cc1c(C(=O)NCc2c(F)ccc3occc23)cn(S(=O)(=O)c2ccc3[nH]ncc3c2)c1C [TDI-015820, Cc1c(C(=O)NCc2c(F)ccc3occc23)cn(S(=O)(=O)c2ccc3[nH]ncc3c2)c1C]	–	–	–	–	–	–	IC50 [4]: 0.0307 µM
COc1ccc(CC(=O)Nc2cccc(S(=O)(=O)N(C)c3ccccc3)c2)cc1 [RU-0833640]	–	–	–	41.8	-2.97%	> 62.5 µM	–
CC1(CNC(=O)c2ncn3ccccc23)CCC(NC(=O)c2ccn3cncc3c2)C1 (centres unmarked) [RU-0834148]	> 125 µM	10.2%	15.4	–	–	–	–
Cc1c(S(=O)(=O)c2cccc(C#N)c2)cc(C(=O)NCc2c(Cl)cnn2C)n1C [TDI-016685, Cc1c(S(=O)(=O)c2cccc(C#N)c2)cc(C(=O)NCc2c(Cl)cnn2C)n1C]	–	–	–	–	–	–	IC50 (Merged IC50 (µM), TDI-015051 series, retrospective VS set, biochemical MTase assay): 0.0167 µM
Cc1c(S(=O)(=O)N2CCc3n[nH]cc3C2)cc(C(=O)NCc2cccc3occc23)n1C [TDI-015608, Cc1c(S(=O)(=O)N2CCc3n[nH]cc3C2)cc(C(=O)NCc2cccc3occc23)n1C]	–	–	–	–	–	–	IC50 [4]: 0.000481 µM
O=C(CCc1c[nH]c2ccccc12)Nc1cccc(S(=O)(=O)N2CCCC2)c1 [RU-0833647]	–	–	–	56.4	-2.13%	> 62.5 µM	–
Cc1c(O)cccc1C(=O)NC[C@]1(O)CCN(C(=O)Cc2ccc3[nH]ncc3c2)C1 [RU-0833675]	–	–	–	13.5	3.8%	> 62.5 µM	–
Cc1cc(C(=O)N2CCC3(CC2)CC3CNC(=O)c2n[nH]c3cccnc23)cc2cn[nH]c12 (centres unmarked) [RU-0834093]	> 125 µM	40.9%	0.617	–	–	–	–
Cc1cc(C(=O)NC2CCC3(CC2)CC(NC(=O)c2cnn4ccn(C)c24)C3)cc(C)c1O (centres unmarked) [RU-0834180]	> 125 µM	14.1%	12.9	–	–	–	–
COc1ccc(NS(=O)(=O)c2ccc(OC)c(NS(=O)(=O)c3ccc(C)cc3)c2)cc1 [RU-0833933]	> 125 µM	11.4%	66.8	–	–	–	–
COc1ccc(NC(=O)COc2ccc(N(C)S(=O)(=O)c3ccc(F)cc3)cc2)cc1Cl [RU-0833920]	> 125 µM	11.7%	19.3	–	–	–	–
C[C@H](NC(=O)c1cccc(N2CCCC2=O)c1)c1nnc2ccccn12 [RU-0833631]	–	–	–	1.2	5.75%	> 62.5 µM	–
COc1ccccc1NS(=O)(=O)c1cc(C(=O)NCc2nc3ccccc3[nH]2)ccc1Cl [RU-0833662]	–	–	–	1.03	11.5%	> 62.5 µM	–
O=C(Cc1c(F)cccc1F)NCC1CN(C(=O)c2cc3ccccn3c2)C1 [RU-0833922]	50.3 µM	76.9%	1.19	–	–	–	–
O=C(NC1CC(O)(CNC(=O)c2cnn3ncccc23)C1)c1ccc(O)cc1F (centres unmarked) [RU-0834144]	> 125 µM	9.15%	61	–	–	–	–
CCc1ccc(C)c(C(=O)NCC2COC(CNC(=O)c3cc(C)c4[nH]ncc4c3)C2)c1 (centres unmarked) [RU-0834100]	> 125 µM	15.4%	1.18	–	–	–	–
Cc1cc(F)ccc1C(=O)NCc1ccc(CCNC(=O)c2cc(O)cc(F)c2)cc1 [RU-0834104]	11.6 µM	31.2%	0.959	–	–	–	–
O=C(CCn1cnc2ccccc2c1=O)NCCn1ccc2ccc(Br)cc21 [RU-0833882]	> 125 µM	10.6%	45.1	–	–	–	–
O=C(Nc1cccc(CNC(=O)c2c[nH]c3cc(F)ccc23)c1)c1ccncc1 [RU-0833634]	–	–	–	1.54	14.3%	> 62.5 µM	–
CN(c1ccccc1)S(=O)(=O)c1cccc(NC(=O)CNC(=O)c2ccccc2Cl)c1 [RU-0833903]	> 125 µM	10.7%	70.3	–	–	–	–
COc1ccccc1CNC(=O)c1cc(S(=O)(=O)N2CCc3ccccc3C2)c2n1CCC2 [TDI-013711, COc1ccccc1CNC(=O)c1cc(S(=O)(=O)N2CCc3ccccc3C2)c2n1CCC2]	–	–	–	–	–	–	IC50 [4]: 0.0683 µM
O=C(COc1ncnc2ccccc12)Nc1cccc(S(=O)(=O)N2CCCCCC2)c1 [RU-0833896]	> 125 µM	8.44%	112	–	–	–	–

SMILES	IC50 [1]	Emax [2]	SARS-CoV-2 NSP14 inhibition: Hill slope [3]	SARS-CoV-2 NSP14 inhibition: Hill slope [5]	Emax [6]	IC50 [7]	also measured
O=C(CNc1cccc(S(=O)(=O)N2CCCCC2)c1)N1CCCc2cccc(F)c21 [RU-0833644]	–	–	–	19.2	1.99%	> 62.5 µM	–
Cc1cccc(C(O)C(=O)NC[C@H]2CCC[C@@H](NC(=O)c3cc(C)c4[nH]ncc4c3)C2)c1 (some centres unmarked) [RU-0834167]	> 125 µM	29.4%	0.446	–	–	–	–
O=C(NC[C@H](O)CNC(=O)c1ncnc2[nH]ccc12)c1cc(F)cc2ccccc12 [RU-0833682]	–	–	–	0.895	18.7%	> 62.5 µM	–
C[C@@H](NC(=O)c1cccc(S(=O)(=O)N(C)c2cccc(Cl)c2)c1)c1ccncc1 [RU-0833642]	–	–	–	9.92	0.45%	> 62.5 µM	–
O=C(CCCn1c(=O)oc2ccccc21)Nc1cccc(C(=O)N2CCOCC2)c1 [RU-0833657]	–	–	–	89.6	7.03%	> 62.5 µM	–
Cc1cc(C(=O)NC[C@H]2C[C@H](CNC(=O)c3ncn4ccccc34)C2)ccc1O [RU-0834189]	> 125 µM	11.8%	1.2	–	–	–	–
O=C(C1CCCC1)N1CC(S(=O)(=O)N[C@@H]2C[C@@H]2c2c(F)cccc2F)C1 [RU-0833635]	–	–	–	0.114	0.75%	> 62.5 µM	–
Cc1cc(C(=O)NCc2cc(C(=O)NCc3ccc(F)cc3C)ccn2)ccc1O [RU-0834130]	> 125 µM	14.5%	14	–	–	–	–
CN(C1CCCCC1)S(=O)(=O)c1cccc(C(=O)NCCc2c[nH]c3ccccc23)c1 [RU-0833639]	–	–	–	-47.8	-2.15%	> 62.5 µM	–
COc1ccc(NS(=O)(=O)c2cc(NC(=O)Cc3ccc(OC)cc3OC)ccc2C)cc1 [RU-0833664]	–	–	–	4.68	4.52%	> 62.5 µM	–
C=C1Nc2cc(C)nn2C(C)=C1CCC(=O)NCCS(=O)(=O)N1CCc2ccccc21 [RU-0833895]	> 125 µM	15.2%	1.25	–	–	–	–
Cc1cc(C(=O)N[C@H]2C[C@@H](O)[C@@H]2CC(=O)NCc2cccc(C)c2F)ccc1O [RU-0834166]	> 125 µM	21.7%	1.26	–	–	–	–
Cc1c(F)ccc(C(=O)NCc2ccc(CNC(=O)c3cccc(CO)c3)cc2)c1C [RU-0834095]	74.8 µM	36.8%	0.616	–	–	–	–
Cn1nc(C(=O)N2CC3CCC(CNC(=O)c4n[nH]c5ccccc45)C3C2)cc1CO (centres unmarked) [RU-0834135]	> 125 µM	11%	76.2	–	–	–	–
Cc1cccc(C(=O)Nc2cc(NC(=O)Cn3nc(C)cc3C)ccc2C)c1 [RU-0833869]	–	–	–	10.7	19.6%	> 125 µM	–
O=C(NCc1ccccc1CNC(=O)c1ncnc2[nH]ccc12)c1cccc(Br)c1F [RU-0833942]	25.1 µM	69.3%	1.33	–	–	–	–
Cc1nccc(CCC(=O)NCCC2(C)CCN(C(=O)c3cc(C)c4[nH]ncc4c3)C2)n1 (centres unmarked) [RU-0834198]	–	16.8%	14.7	–	–	–	IC50 (SARS-CoV-2 NSP14 inhibition: IC50, LUM % inhibition): > 125 µM
O=C(NCc1cn2ccccc2n1)c1cccc(S(=O)(=O)NCc2ccccc2)c1 [RU-0833652]	–	–	–	18.9	2.13%	> 62.5 µM	–
Cc1cccc(S(=O)(=O)c2ccc(=O)n(CC(=O)NCCc3ccc(Cl)cc3)n2)c1 [RU-0833885]	13.9 µM	78.9%	2.97	–	–	–	–
CCN(CC)S(=O)(=O)c1cccc(NC(=O)CNc2cccc(-c3ccnc(C)n3)c2)c1 [RU-0833918]	> 125 µM	22.8%	2.12	–	–	–	–
O=C(Nc1cccc(F)c1)c1cccc(NC(=O)c2ccnc3[nH]ccc23)c1 [RU-0833674]	–	–	–	2.17	2.07%	> 62.5 µM	–
O=C(CC[C@H]1CC[C@@H](NC(=O)c2ccc3[nH]ncc3c2)C1)NCc1ncc(F)cc1F [RU-0834161]	> 125 µM	27.1%	1.35	–	–	–	–
O=C(NCCn1ncc2c(NCCc3ccccc3)ncnc21)C1CC(=O)N(c2ccc(F)cc2)C1 (centres unmarked) [RU-0833867]	–	–	–	128	27.7%	> 125 µM	–
O=C(N[C@@H]1CC[C@H]1NC(=O)c1ccnc2[nH]ccc12)c1cccc(C2CC2)c1 [RU-0833670]	–	–	–	10.9	3.36%	> 62.5 µM	–
Cc1c(S(=O)(=O)N2CCn3cncc3C2)cc(C(=O)NCc2c(F)cccc2N2CCCC2)n1C [TDI-014802, Cc1c(S(=O)(=O)N2CCn3cncc3C2)cc(C(=O)NCc2c(F)cccc2N2CCCC2)n1C]	–	–	–	–	–	–	IC50 [4]: 0.000858 µM

From article PMC12434519 (ACS Medicinal Chemistry Letters, 2025)
